Measurements taken from PMC4336329 (PLoS ONE, 2015).
Screen size: about 310,000 compounds; about 14,000 (4.5%) showed an effect of 50% or more. The effect is printed as a negative number. This is one part of the list.

molecular target: human ether-à-go-go-related gene (hERG) potassium channel (human, UniProt Q12809); test: primary screen, population patch clamp on CHO cells stably expressing hERG
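Also: peak tail current of the secondary pulse compared with the same well before compound.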

human ether-à-go-go-related gene (hERG) potassium channel, sequence (Q12809 whole entry, looked up): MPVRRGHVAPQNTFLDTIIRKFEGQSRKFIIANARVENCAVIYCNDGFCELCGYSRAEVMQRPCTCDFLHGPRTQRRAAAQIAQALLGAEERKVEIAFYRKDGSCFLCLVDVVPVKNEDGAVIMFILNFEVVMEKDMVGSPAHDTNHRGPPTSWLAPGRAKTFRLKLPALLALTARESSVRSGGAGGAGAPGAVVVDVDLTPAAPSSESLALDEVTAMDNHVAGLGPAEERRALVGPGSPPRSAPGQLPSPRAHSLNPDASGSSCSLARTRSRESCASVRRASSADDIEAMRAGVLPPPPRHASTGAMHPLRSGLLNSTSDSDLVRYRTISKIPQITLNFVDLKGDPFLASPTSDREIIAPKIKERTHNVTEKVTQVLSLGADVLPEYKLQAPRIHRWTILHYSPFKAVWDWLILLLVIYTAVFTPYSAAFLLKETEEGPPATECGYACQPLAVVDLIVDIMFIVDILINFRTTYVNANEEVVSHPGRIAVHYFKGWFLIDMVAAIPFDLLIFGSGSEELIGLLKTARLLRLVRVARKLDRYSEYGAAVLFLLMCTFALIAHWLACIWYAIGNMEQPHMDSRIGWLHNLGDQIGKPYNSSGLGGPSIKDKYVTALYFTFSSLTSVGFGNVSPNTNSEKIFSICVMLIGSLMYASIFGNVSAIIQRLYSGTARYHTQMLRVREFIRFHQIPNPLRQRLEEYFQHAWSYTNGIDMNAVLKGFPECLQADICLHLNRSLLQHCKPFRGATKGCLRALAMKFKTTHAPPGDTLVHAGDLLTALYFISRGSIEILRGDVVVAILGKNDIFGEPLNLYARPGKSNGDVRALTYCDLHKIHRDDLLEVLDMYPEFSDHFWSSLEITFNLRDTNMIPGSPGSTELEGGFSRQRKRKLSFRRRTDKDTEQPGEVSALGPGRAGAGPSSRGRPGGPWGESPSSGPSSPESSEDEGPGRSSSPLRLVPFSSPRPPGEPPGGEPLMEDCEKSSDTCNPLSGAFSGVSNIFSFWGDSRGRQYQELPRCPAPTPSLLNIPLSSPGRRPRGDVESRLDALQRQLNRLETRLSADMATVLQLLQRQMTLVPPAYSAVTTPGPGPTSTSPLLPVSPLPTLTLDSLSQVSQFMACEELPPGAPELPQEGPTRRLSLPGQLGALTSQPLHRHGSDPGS

Compound	hERG current change (%, negative = inhibition) at 10uM [%]
CN(C)c1ccc(NC(=O)C2CCCN(S(=O)(=O)c3ccccc3)C2)cc1 (stereo not drawn)	11.5
CN(C)S(=O)(=O)c1ccc(C(=O)N2CC(=O)Nc3ccc(F)cc3C2c2ccc(F)cc2)cc1 (stereo not drawn)	-21
O=C(CSc1nnc(NC(=O)Cc2ccc(F)cc2)s1)NCc1ccco1	14.3
O=C(OCCN1CCN(C2=NS(=O)(=O)c3ccccc32)CC1)c1cccc(Br)c1	-68.6
COc1ccccc1/C=N/NC(=O)CC(=O)NCCc1ccccc1	12.1
O=C(CSC1=N/C(=C/c2ccc(Cl)c(Cl)c2)C(=O)N1c1ccccc1F)NC1CC1	-4.14
O=c1nc(N2CCCCCC2)nc(N2CCCCCC2)[nH]1	-0.988
CCN(C(=O)c1cccc(Br)c1)C1CCS(=O)(=O)C1 (stereo not drawn)	9.22
COc1cc(/C=N/N=C2/NC(=O)C(Cc3ccccc3)S2)ccc1O (stereo not drawn)	9.18
CCOC(=O)c1sc(=S)n(-c2ccccc2OC)c1N	13.2
Br.CCCCn1c(=N)n(CC(=O)C(C)(C)C)c2ccccc21	-55
CC(Oc1ccc(Br)cc1)C(=O)NCC1(N2CCCCC2)CCCCC1 (stereo not drawn)	-23.1
COc1ccccc1-n1c(=O)[nH]c2c(C(N)=O)nc(C3CCCCC3)nc21	-11.7
O=C(Cn1cncn1)c1ccccc1	2.88
CN(CC(=O)Nc1ccc(F)cc1)CC(=O)N(C)C1(C#N)CCCCC1	-33.5
CCOc1ccc(/C=C2/C(=O)N(c3ccc(OC)cc3)C(=S)N2CC(=O)OC)cc1OCC	10.8
CC(C)CCNCC(O)CON=C1c2ccccc2-c2ccccc21 (stereo not drawn)	-32.2
NC(C(=O)O)c1cc(=O)[nH]o1 (stereo not drawn)	13.4
CCOc1ccc(N(CC(=O)NN=C2CCN(C)CC2)S(=O)(=O)c2ccc(Br)cc2)cc1	-13.5

Compound	hERG current change (%, negative = inhibition) at 10uM [%]
COc1ccc(-c2csc(NC(=O)C3CC(=O)N(Cc4ccccc4)C3)n2)cc1OC (stereo not drawn)	1.78
Cc1ccc2c(c1)NC(=O)C(CC(=O)NC1CCCCC1C)O2 (stereo not drawn)	-8.23
CCOC(=O)c1sc(NC(=O)Nc2cccc(Cl)c2)cc1C	-4.89
CC(C)(Cc1ccc(O)cc1)NC(=O)CC(=O)N=Nc1c(O)[nH]c2ccc(Br)cc12	19.5
CC(C)CCN1CCN(Cc2ccc3nsnc3c2)CC1CCO (stereo not drawn)	-42.6
O=C(CSc1nccn(-c2cccc(F)c2)c1=O)Nc1ccc(Cl)cc1F	3.31
CCN(CC)CCC(=O)NN	26.5
O=C1Nc2ccc([N+](=O)[O-])cc2C1(O)N1CCCCCC1 (stereo not drawn)	-25.1
O=C(/C=C/c1cc([N+](=O)[O-])ccc1OC(F)F)Nc1ccc(OC(F)F)cc1	14.5
COC(=O)c1cc(C(=O)NCCN2C(=O)S/C(=C\c3cccs3)C2=O)cc([N+](=O)[O-])c1	-19.8
CCCCN(C(=O)NC(=O)Nc1ccccc1OCC)S(C)(=O)=O	6.01
O=C(O)c1ccc(NC(=O)C2(c3ccccc3)CCOCC2)cc1	-5.57
O=C(O)/C(=C\c1ccc(Br)cc1)NC(=O)c1cccs1	15.9
O=C(CCC(=O)Nc1ccc(Cl)cc1)N/N=C/c1ccc2c(c1)OCO2	13.4
O=C1c2ccccc2S(=O)(=O)c2cc(N3CCOCC3)ccc21.O=C1c2ccccc2S(=O)(=O)c2cc(N3CCOCC3)ccc21	4.53
CC12CCC(C(=O)N(Cc3ccccc3)Cc3ccccc3)(OC1=O)C2(C)C (stereo not drawn)	-2.2
C=CCn1c(COc2cccc3ccc(C)nc23)nnc1SCC(=O)OC	-0.175
O=NN1CCN(c2ccncc2S(=O)(=O)N2CCCCC2)CC1	10.6
CCN1CCN(CCCOc2ccc(-c3ccccc3)cc2)CC1	-71.9

Compound	hERG current change (%, negative = inhibition) at 10uM [%]
COc1ccc2c3c1OC1CC(O)C=CC31CCN(C)C2.I (stereo not drawn)	16.2
COc1ccccc1S(=O)(=O)Cc1ccc(C(=O)N2CCN(c3ccccn3)CC2)o1	-17.8
CCCC(C)C(=O)Nc1ccc(Cl)cn1 (stereo not drawn)	-7.45
CC(=O)C(N=Nc1ccccc1)(Sc1nnc(-c2ccccc2)n1-c1ccccc1)C(C)=O	0.72
Cc1cc(-c2csc(NC(=O)c3ccc(C#N)cc3)n2)c(C)n1Cc1ccco1	19.8
COc1cc(OC)cc(C(=O)NCCSc2c[nH]c3ccccc23)c1	-17.1
COc1ccccc1CN1CCN(Cc2cc(OC)c(OC)cc2OC)CC1.O=C(O)C(=O)O	-11.2
Cc1ccc(NC(=O)Cn2c(=O)cnc3ccccc32)cc1S(=O)(=O)N1CCCCC1	-50.8
O=S(=O)(O)c1nc2ccccc2n1CCOc1ccccc1	8.24
O=S(=O)(c1ccc(OCC(O)CN2CCCCC2)cc1)N1CCOCC1 (stereo not drawn)	18.8
Cc1ccc(C(=O)N(c2ccccn2)C(C)c2ccco2)cc1C (stereo not drawn)	-10
O=C(O)COc1cnc2ccccc2n1	15.6
CC(NC(=O)Cc1cccs1)C(c1cccs1)N1CCN(c2ccccc2F)CC1 (stereo not drawn)	-13.6
Cc1ccc(S(=O)(=O)CC(=O)N2CC(C)OC(C)C2)cc1 (stereo not drawn)	12.5
S=C(Nc1ccccc1Cl)N1CCCCC1	24.2
Cc1cccc(OCC(=O)NC(C)C(=O)N/N=C/c2c(OCc3ccccc3)ccc3ccccc23)c1 (stereo not drawn)	-4.53
CCCc1cc2c(cc1NC(=O)c1ccco1)OCO2	3.55
Cc1ccc(C(=O)c2cn[nH]c2-c2ccccc2O)cc1	14.4
COCCSc1nnc(NC(=O)C(C)(C)C)s1	4.15
